The values below come from PubChem BioAssay AID1347073 (National Center for Advancing Translational Sciences (NCATS), 2019).

Among all 45,000 compounds or so, about 200 (0.44%) were called active. Another 7% or so got no clear call; they are omitted. The call rests on the fitted dose curve; in most records, active means well fitted activation curve with a large enough effect; inconclusive means small, poorly fitted or top-dose-only effect; inactive means no such curve, though single readings can be large or run the other way. Some of the results follow.
Potency means the concentration at half of the fitted maximal effect.

The assay in a line: qHTS of TDP-43 Inhibitors: NCGC Sytravon Library Screen. Further: nearly all actives have a fitted effect of over 55% in size. On growth rescue (activation): 0% is about no effect. The note with it: yeast TDP-43 toxicity rescue, BacTiter-Glo growth, 24 h; series mostly up to 46.1 µM; growth rescue (activation): at the top concentration. The procedure, abridged: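 TDP-43-expressing yeast, pregrown in raffinose, seeded at OD600 0.02 in galactose medium with compound for 24 hr at 30 deg C. Growth read by BacTiter-Glo luminescence, so rescue of toxicity appears as activation.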
In the case of `CCCN(CCC)CC(=O)Nc1cccc2c1OCO2`, the “growth rescue (activation)” value was inactive: -15.1%.

As for `O=C(CSc1nnc(-c2ccccn2)o1)Nc1ccccc1C(F)(F)F`, the “growth rescue (activation)” value was inactive: 13.8%.

As for `Cc1cc(N(C)/N=C/c2ccccc2O)nc(-c2ccccc2O)n1`, the “growth rescue (activation)” value was inactive: 8.91%.

`CCC1Oc2ccccc2N(CC(=O)NC2CCCC2)C1=O` (stereo not given): the “growth rescue (activation)” value is inactive: -2.7%.

As to `O=C(O)CCN1C(=O)/C(=C2\C(=O)N(Cc3ccc(F)cc3)c3ccccc32)SC1=S`, the “growth rescue (activation)” value is inactive: 1.97%.

As to `Nc1cc(N)nc(SCC(=O)c2ccc3c(c2)NC(=O)CO3)n1`, the “growth rescue (activation)” value was inactive: -13.1%.

As to `O=C(/C=C\c1ccc2c(c1)OCO2)CC1(O)C(=O)Nc2ccccc21` (stereo not given), the “growth rescue (activation)” value was inactive: 25.6%.

`Cc1ccc(C(=O)N2c3ccc(C)cc3C(C)(c3ccccc3)CC2(C)C)cc1` (stereo not given): the “growth rescue (activation)” value was inactive: 1.59%.

Consider `C=CCN(c1cccc(C(F)(F)F)c1)S(=O)(=O)c1cccc(C(=O)OCC(=O)NC)c1`, for which the “growth rescue (activation)” value was inactive: 10.2%.

Regarding `NC(N)=NN=C1c2ccccc2-c2ccccc21`, the “growth rescue (activation)” value was inactive: 9.88%.

`Cc1cccc(N)c1SC1CCCCC1O` (stereo not given): the “growth rescue (activation)” value was inactive: 21.5%.

In the case of `CCc1ccc(NC(=O)CS(=O)CC(=O)Nc2ccc(-n3cnnn3)c(C)c2)cc1` (stereo not given), the “growth rescue (activation)” value was inactive: 7.91%.

Turning to `COc1ccccc1N1CCN(C(=O)c2ccc3[nH]c4c(c3c2)CCCC4)CC1`, the Potency was active: 17.8 µM.

On to `O=c1nccc(N/N=C/c2ccccc2O)[nH]1`, for which the “growth rescue (activation)” value is inactive: 5.36%.

Consider `COc1ccc(NC(=O)C23CCC(C)(C(=O)C2)C3(C)C)cc1` (stereo not given), for which the “growth rescue (activation)” value was inactive: 13.2%.

For the compound `Cc1ccc(C)c(NC(=O)c2ccc3nccnc3c2)c1`, the “growth rescue (activation)” value is inactive: -4.87%.

As for `COc1ccc(NC(=O)CCNS(=O)(=O)c2ccccc2F)cc1S(N)(=O)=O`, the “growth rescue (activation)” value was inactive: 3.59%.

As to `CCCCCCCCCCS(=O)(=O)N/N=C/c1ccccc1OC`, the “growth rescue (activation)” value was inactive: 3.39%.

As for `CC1CCCCC1NC(=O)COc1ccc(C#N)cc1` (stereo not given), the “growth rescue (activation)” value is inactive: 11.6%.

Consider `N#Cc1cn(Cc2ccccc2)c(=O)[nH]c1=O`, for which the “growth rescue (activation)” value is inactive: -28.3%.

Turning to `O=C(Cn1cc(C(F)(F)F)cc(Cl)c1=O)NCc1ccc(Cl)cc1Cl`, the “growth rescue (activation)” value was inactive: 5.38%.

On to `Cc1cccc(N2CN(S(=O)(=O)c3cccc([N+](=O)[O-])c3)c3nc4ccccc4nc32)c1`, for which the “growth rescue (activation)” value was inactive: 0.222%.

Take `CCCC(=O)NC(c1ccc2c(c1)OCO2)c1cc(Cl)c2cccnc2c1O` (stereo not given): the “growth rescue (activation)” value was inactive: 6.9%.

Consider `NC(c1ccccc1)c1csc(NC(=O)Nc2cccc(C(F)(F)F)c2)n1` (stereo not given), for which the “growth rescue (activation)” value is inactive: 0.792%.

For the compound `CCCOc1ccc(C(=O)N/N=C/c2c[nH]c3ccc(Br)cc23)cc1`, the “growth rescue (activation)” value was inactive: -4.86%.

For `Cc1csc(NC(=O)CSc2nc3[nH]c(=O)cc(O)c3s2)n1`, the “growth rescue (activation)” value is inactive: -1.11%.

In the case of `COc1cc(NC(=O)CSc2nccc(C)n2)c(C)cc1[N+](=O)[O-]`, the “growth rescue (activation)” value was inactive: 22.2%.

Consider `Cc1cccc(NC(=O)C(C)Sc2nc3nc(C)cc(C)n3n2)c1` (stereo not given), for which the “growth rescue (activation)” value was inactive: 10.5%.

On to `CN(CCOc1ccccc1)C(=O)c1ccc(OC2CCN(C(=O)C3CC3)CC2)cc1`, for which the “growth rescue (activation)” value is inactive: 13.8%.

Consider `O=C(COC(=O)/C=C/c1cccc(C(F)(F)F)c1)NC(=O)NC1CCCC1`, for which the “growth rescue (activation)” value is inactive: 17.2%.

On to `Cc1ccc(N(CC(=O)NC2CCCC2)C(=O)CNC(=O)c2cccs2)cc1F`, for which the “growth rescue (activation)” value is inactive: 2.56%.

`O=C(CNC(=O)c1ccccc1)NCCCSc1ccccc1`: the “growth rescue (activation)” value was inactive: -0.129%.

For `O=C(NCc1ccco1)C1CCN(S(=O)(=O)c2cccc([N+](=O)[O-])c2)CC1`, the “growth rescue (activation)” value was inactive: 11.4%.

`O=C(CN1C(=O)NC2(CCCC2)C1=O)Nc1cccc(Cl)c1`: the “growth rescue (activation)” value is inactive: -13.3%.

As for `Cc1cc(=O)[nH]c2sc(C(=O)N3c4ccccc4CC3C)c(N)c12` (stereo not given), the “growth rescue (activation)” value was inactive: 8.42%.

For `COc1ccc(C(=O)N/N=C/c2ccc3cccc(O)c3n2)cc1`, the “growth rescue (activation)” value is inactive: 4.26%.

`CC(C)(C)C1CCc2oc3ccc(NS(=O)(=O)c4cc(Cl)ccc4Cl)cc3c2C1` (stereo not given): the “growth rescue (activation)” value is inactive: 10.8%.

Consider `COc1ccc(NC(=O)COC(=O)CCc2ccccc2)c(OC)c1`, for which the “growth rescue (activation)” value is inactive: 18.3%.

With `Cc1nnc(SCC(=O)c2ccc(Cl)cc2)s1`, the “growth rescue (activation)” value is inactive: -0.824%.

With `COc1cc(/C=C/C(=O)Nc2ccc(C(C)=O)cc2)cc(OC)c1OC`, the “growth rescue (activation)” value is inactive: -6.17%.

`C=CCn1c(SCC(=O)NC(=O)Cc2ccccc2)nnc1-c1ccccc1F`: the “growth rescue (activation)” value is inactive: 2.13%.

As to `O=C(c1cc2c(=O)n3ccccc3nc2s1)N1CCN(Cc2ccccc2)CC1`, the “growth rescue (activation)” value was inactive: 7.7%.

As for `C[N+](C)(CC#Cc1ccccc1)CC(=O)c1ccccc1`, the “growth rescue (activation)” value was inactive: -1.81%.

Regarding `COc1ccc(CN(C)C2c3ccccc3-c3ccccc32)cc1`, the “growth rescue (activation)” value is inactive: -0.346%.

As to `O=C(COc1ccc2c(-c3ccccc3)cc(=O)oc2c1)NCc1cccs1`, the “growth rescue (activation)” value is inactive: 10.4%.

Take `CCc1ccc2c(COC(=O)CNS(=O)(=O)c3ccc(NC(C)=O)cc3)cc(=O)oc2c1`: the “growth rescue (activation)” value was inactive: 12.4%.

Take `COc1ccc(C(=O)COC(=O)c2n[nH]c3ccccc23)c(OC)c1`: the “growth rescue (activation)” value was inactive: 2.04%.

Take `Cc1ccc(OCC(=O)NCCNC(=O)c2ccc(C)nc2)cc1`: the “growth rescue (activation)” value was inactive: -14.2%.

In the case of `Cc1nc2ccc(S(=O)(=O)NCC(=O)NCCN3CCCCCC3)cc2s1`, the “growth rescue (activation)” value was inactive: -26.8%.

For the compound `O=C(Nc1ccc(C(=O)O)cc1)/C(=C\c1ccc2c(c1)OCO2)NC(=O)c1ccccc1`, the “growth rescue (activation)” value is inactive: -7.76%.

Regarding `O=C(c1ccc(-c2ccc([N+](=O)[O-])cc2Cl)o1)N1CCOCC1`, the “growth rescue (activation)” value is inactive: 7.46%.

With `COc1ccc(-c2cc(NC=O)c3ncc(-c4cccc(C(=O)N(C)C)c4)n3c2)cn1`, the “growth rescue (activation)” value was inactive: -2.38%.

For `CC(=O)c1ccc(NC(=O)CSc2nc3[nH]c(=O)cc(O)c3s2)cc1`, the “growth rescue (activation)” value is inactive: -7.59%.

As for `COc1ccc(NC(=O)C2CC(=O)N(C(C)C)C2)cc1` (stereo not given), the “growth rescue (activation)” value was inactive: 3.79%.

With `Cc1c(NC(=S)SCc2ccccc2)c(=O)n(-c2ccccc2)n1C`, the “growth rescue (activation)” value was inactive: -6.06%.
